# Test results reported in the supplement of paper PMC12067093, “Discovery and optimisation of a covalent ligand for TRIM25 and its application to targeted protein ubiquitination” (Chemical Science, 2025).
# Of roughly 21,000 targets only a part is listed; those with the largest changes were picked by preference.
# Compound: Cc1cc(ccc1-c1ccccc1)C(=O)N1CCCN(CC1)C(=O)CCl [compound 10]
# Experiment: probe-labelled cysteine peptide fold change vs DMSO (competition) (log2 fold change); higher = less target engagement (more negative = stronger competition)
# Settings: THP-1, incubation time: 4 h
# 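Also: competitive profiling in live THP-1 cells: cysteine peptides tagged with an iodoacetamide desthiobiotin (IA-DTB) probe, intensity after compound treatment relative to DMSO-treated cells.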
# Chain of UniProt P23469 (P23469 whole entry, looked up): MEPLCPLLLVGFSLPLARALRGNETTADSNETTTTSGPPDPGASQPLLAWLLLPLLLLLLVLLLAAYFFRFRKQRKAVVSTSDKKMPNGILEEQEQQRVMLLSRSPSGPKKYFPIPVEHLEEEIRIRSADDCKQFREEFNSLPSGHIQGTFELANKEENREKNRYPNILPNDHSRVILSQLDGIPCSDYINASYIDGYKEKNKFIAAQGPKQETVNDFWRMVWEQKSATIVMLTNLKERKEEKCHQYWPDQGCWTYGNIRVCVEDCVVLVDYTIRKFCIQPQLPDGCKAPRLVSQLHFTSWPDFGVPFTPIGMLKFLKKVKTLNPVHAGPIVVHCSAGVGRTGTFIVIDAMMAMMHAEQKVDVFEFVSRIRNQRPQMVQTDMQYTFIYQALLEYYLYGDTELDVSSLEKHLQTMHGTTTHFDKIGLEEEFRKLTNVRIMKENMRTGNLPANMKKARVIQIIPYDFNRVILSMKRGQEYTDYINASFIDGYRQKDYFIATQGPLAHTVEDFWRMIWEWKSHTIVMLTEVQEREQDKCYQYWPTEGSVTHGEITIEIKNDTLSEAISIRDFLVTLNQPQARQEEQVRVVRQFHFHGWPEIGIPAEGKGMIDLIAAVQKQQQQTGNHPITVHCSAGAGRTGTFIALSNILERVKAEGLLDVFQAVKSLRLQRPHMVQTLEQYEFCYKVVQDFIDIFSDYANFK
# Chain of UniProt Q9Y3P9 (Q9Y3P9 whole entry, looked up): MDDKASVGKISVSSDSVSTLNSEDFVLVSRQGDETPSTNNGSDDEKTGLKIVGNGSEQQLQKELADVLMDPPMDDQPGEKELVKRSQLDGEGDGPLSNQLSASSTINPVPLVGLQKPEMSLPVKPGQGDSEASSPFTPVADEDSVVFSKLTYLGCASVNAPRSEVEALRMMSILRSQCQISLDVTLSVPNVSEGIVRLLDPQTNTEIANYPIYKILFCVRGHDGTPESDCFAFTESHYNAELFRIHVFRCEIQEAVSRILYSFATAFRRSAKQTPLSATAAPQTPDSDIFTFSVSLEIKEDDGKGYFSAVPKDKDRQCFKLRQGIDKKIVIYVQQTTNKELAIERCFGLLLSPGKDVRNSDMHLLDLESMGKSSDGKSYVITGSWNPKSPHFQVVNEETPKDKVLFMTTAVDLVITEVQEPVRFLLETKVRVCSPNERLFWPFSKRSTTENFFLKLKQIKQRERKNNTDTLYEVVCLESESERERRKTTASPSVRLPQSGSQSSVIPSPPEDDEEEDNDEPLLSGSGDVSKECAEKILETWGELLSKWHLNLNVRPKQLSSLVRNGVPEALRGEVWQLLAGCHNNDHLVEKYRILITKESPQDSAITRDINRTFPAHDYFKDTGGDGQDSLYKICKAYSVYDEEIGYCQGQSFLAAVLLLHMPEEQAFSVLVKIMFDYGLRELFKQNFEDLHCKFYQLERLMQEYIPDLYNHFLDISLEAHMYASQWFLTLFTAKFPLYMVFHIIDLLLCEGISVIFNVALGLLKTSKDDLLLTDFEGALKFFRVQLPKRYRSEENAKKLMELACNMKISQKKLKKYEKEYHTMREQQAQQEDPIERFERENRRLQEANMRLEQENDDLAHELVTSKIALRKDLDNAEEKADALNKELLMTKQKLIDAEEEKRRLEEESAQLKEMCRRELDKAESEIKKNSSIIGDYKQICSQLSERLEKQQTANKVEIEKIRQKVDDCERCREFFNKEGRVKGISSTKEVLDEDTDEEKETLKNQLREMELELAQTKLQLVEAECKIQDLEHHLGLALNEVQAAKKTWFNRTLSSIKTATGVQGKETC
# Chain of UniProt Q6WKZ4 (Q6WKZ4 whole entry, looked up): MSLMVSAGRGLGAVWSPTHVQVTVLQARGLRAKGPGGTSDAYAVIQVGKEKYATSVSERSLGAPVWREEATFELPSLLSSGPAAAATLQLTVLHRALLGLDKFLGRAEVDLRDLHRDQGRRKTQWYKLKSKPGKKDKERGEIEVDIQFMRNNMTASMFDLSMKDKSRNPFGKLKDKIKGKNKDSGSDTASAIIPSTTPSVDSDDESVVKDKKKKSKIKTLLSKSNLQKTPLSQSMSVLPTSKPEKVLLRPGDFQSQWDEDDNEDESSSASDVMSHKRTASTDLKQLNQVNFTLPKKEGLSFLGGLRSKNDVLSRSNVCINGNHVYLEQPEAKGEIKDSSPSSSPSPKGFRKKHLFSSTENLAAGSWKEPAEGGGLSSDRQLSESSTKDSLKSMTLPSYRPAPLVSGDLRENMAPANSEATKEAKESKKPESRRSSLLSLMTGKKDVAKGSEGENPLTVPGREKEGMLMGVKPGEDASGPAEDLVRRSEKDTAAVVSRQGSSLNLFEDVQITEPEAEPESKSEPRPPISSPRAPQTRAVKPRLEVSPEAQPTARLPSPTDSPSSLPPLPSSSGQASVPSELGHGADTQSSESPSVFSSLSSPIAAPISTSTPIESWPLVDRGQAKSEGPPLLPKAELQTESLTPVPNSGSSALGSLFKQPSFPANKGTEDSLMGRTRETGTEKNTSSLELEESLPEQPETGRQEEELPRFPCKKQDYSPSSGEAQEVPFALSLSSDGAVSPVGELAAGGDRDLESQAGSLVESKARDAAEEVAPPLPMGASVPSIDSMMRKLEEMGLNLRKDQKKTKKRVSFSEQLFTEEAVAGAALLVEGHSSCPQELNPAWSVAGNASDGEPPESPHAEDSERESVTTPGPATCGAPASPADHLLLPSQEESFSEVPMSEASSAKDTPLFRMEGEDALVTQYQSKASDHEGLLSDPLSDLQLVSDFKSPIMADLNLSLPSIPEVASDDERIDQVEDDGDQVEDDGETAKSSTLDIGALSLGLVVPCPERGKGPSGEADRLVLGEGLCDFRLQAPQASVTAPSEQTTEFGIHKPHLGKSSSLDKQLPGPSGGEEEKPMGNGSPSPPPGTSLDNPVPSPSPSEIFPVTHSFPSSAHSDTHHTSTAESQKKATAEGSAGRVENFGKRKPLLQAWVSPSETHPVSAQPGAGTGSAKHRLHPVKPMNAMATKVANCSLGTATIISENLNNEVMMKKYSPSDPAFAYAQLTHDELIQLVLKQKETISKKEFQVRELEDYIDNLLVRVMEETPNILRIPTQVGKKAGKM
# Chain of UniProt P28062 (P28062 whole entry, looked up): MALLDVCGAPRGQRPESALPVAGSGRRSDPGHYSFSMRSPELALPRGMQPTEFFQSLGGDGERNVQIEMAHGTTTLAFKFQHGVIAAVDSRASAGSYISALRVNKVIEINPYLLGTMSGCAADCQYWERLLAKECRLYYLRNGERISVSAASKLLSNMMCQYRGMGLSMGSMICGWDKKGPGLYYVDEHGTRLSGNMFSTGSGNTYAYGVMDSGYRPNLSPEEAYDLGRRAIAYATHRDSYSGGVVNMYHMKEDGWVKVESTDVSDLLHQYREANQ
# Chain of UniProt Q14699 (Q14699 whole entry, looked up): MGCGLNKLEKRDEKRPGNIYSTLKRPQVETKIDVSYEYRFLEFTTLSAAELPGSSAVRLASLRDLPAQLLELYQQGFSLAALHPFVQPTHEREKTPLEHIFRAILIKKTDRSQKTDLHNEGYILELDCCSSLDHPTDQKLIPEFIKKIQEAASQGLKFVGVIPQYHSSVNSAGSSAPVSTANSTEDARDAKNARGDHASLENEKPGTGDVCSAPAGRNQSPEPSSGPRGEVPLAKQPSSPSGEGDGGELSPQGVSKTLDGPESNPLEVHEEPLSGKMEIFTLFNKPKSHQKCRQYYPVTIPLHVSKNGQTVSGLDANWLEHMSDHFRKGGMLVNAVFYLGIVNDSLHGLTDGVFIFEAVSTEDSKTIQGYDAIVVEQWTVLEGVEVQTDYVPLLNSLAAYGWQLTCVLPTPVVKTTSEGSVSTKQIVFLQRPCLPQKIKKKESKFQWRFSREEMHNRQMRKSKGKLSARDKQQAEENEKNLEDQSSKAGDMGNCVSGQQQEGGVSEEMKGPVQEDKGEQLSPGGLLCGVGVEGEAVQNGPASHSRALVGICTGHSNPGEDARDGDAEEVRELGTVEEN
# Chain of UniProt Q6P2P2 (Q6P2P2 whole entry, looked up): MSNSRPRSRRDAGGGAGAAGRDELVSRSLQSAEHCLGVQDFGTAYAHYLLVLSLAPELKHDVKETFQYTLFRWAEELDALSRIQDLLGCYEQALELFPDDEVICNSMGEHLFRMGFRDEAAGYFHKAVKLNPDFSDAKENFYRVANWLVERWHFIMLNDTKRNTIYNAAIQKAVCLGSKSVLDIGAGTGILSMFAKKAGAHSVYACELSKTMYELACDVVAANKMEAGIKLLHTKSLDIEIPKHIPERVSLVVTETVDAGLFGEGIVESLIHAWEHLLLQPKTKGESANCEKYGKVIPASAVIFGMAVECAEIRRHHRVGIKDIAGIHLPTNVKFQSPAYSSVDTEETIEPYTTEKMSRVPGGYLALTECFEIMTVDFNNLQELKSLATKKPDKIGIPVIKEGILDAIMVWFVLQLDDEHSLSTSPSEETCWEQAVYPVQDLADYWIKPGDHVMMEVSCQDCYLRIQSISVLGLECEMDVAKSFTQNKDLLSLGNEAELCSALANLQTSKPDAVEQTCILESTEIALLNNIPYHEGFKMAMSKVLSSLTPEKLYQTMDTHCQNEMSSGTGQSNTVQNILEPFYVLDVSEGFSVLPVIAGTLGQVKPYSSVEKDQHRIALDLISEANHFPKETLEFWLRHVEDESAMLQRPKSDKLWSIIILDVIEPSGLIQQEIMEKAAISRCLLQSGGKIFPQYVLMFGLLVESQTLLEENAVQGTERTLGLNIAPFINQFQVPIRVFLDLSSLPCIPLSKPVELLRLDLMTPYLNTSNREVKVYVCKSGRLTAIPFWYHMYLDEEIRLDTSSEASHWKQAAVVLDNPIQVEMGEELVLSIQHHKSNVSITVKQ
# Chain of UniProt P28065 (P28065 whole entry): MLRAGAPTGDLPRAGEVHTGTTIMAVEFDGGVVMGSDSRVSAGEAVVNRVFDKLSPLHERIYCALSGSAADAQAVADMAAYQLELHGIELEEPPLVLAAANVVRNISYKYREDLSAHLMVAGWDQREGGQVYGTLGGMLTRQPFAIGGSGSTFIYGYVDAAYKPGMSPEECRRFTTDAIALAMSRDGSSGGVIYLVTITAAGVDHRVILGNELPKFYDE
Target,probe-labelled cysteine peptide fold change (10 µM),probe-labelled cysteine peptide fold change (50 µM)
PSMA4_P25789_115_YLLQYQEPIPCEQLVTALCDIK (UniProt P25789),0.243,0.398
PREX2_Q70Z35_341_WFVCMAK (UniProt Q70Z35),-0.115,0.176
RFTN1_Q14699_211_PGTGDVCSAPAGR (UniProt Q14699),-0.267,-0.25
PRMT9_Q6P2P2_175_AVCLGSK (UniProt Q6P2P2),0.0219,0.0347
PRUNE1_Q86TP1_313_QLAIFCPHVALQTTICEVLER (UniProt Q86TP1),0.0245,0.0781
QTRT2_Q9H974_324_KIETTGCNQEITSFEINLK (UniProt Q9H974),-0.295,-0.596
PRXL2A_Q9BRX8_85_RPGCFLCR (UniProt Q9BRX8),-2.55,-2.74
RECQL_P46063_606_AESSQTCHSEQGDK (UniProt P46063),-0.0722,-0.2
RLF_Q13129_1364_KIFACK (UniProt Q13129),-0.197,-1.12
PWP2_Q15269_158_CFVVGSK (UniProt Q15269),0.0935,0.05
RARS2_Q5T160_489_LHSLEETFGCGYLNDFNTACLQEPQSVSILQHLLR (UniProt Q5T160),0.336,1.34
PSTPIP1_O43586_213_TTCEAFQLQEFDRLTILR (UniProt O43586),-0.138,-0.28
PTGR2_Q8N8N7_187_VVGICGTHEK (UniProt Q8N8N7),0.237,0.105
PRPF40A_O75400_580_EDALICFEEHIR (UniProt O75400),0.225,0.566
PTGES3_Q15185_40_LTFSCLGGSDNFK (UniProt Q15185),0.0441,0.037
RASGRP2_Q7LDG7_186_ILFQDYHSFVTHGCTVDNPVLER (UniProt Q7LDG7),-0.233,-0.579
PRR14L_Q5THK1_1730_SSSSDCTTESSR (UniProt Q5THK1),-0.269,-1.09
RAB11FIP1_Q6WKZ4_1192_VANCSLGTATIISENLNNEVMMK (UniProt Q6WKZ4),-0.223,-0.343
PRKDC_P78527_1904_INQVFHGSCITEGNELTK (UniProt P78527),-0.0536,-0.375
RASA2_Q15283_436_SCEIDPIK (UniProt Q15283),-0.276,-0.0813
RAB12_Q6IQ22_159_LDCETDREITR (UniProt Q6IQ22),0.0479,0.266

Target,probe-labelled cysteine peptide fold change (10 µM),probe-labelled cysteine peptide fold change (50 µM)
RAC2_P15153_105_HHCPSTPIILVGTK (UniProt P15153),0.12,-0.0654
RFC1_P35251_822_QVLHNLSMWCAR (UniProt P35251),0.12,0.32
PSMC5_P62195_363_GVCTEAGMYALR (UniProt P62195),0.208,0.0769
PSTPIP1_O43586_259_LTLEGCSIDADIDSFIQAK (UniProt O43586),-0.0615,0.115
PSMD13_Q9UNM6_276_KIQLLCLMEMTFTRPANHR (UniProt Q9UNM6),-0.226,0.0422
PRKDC_P78527_123_CKIPALDLLIK (UniProt P78527),-1.08,0.0331
PTPRE_P23469_186_VILSQLDGIPCSDYINASYIDGYK (UniProt P23469),-0.697,0.176
PRMT1_Q99873_226_IHWWENVYGFDMSCIK (UniProt Q99873),0.104,-0.0579
PSMB8_P28062_124_VIEINPYLLGTMSGCAADCQYWER (UniProt P28062),-0.321,-1.14
PSMB9_P28065_171_QPFAIGGSGSTFIYGYVDAAYKPGMSPEECRR (UniProt P28065),0.113,0.12
RAP1GAP2_Q684P5_584_CDSTSSTPK (UniProt Q684P5),-0.117,-0.552
PSMD2_Q13200_779_GTLTLCPYHSDR (UniProt Q13200),0.0817,0.00322
RABGAP1_Q9Y3P9_1026_LQLVEAECK (UniProt Q9Y3P9),-0.0579,-0.0694
RBM25_P49756_110_CGLVLSWK (UniProt P49756),-0.0205,0.193
RMND1_Q9NWS8_310_FAFSNALCLSVK (UniProt Q9NWS8),-0.0469,0.0287
RHBDF2_Q6PJF5_181_DLELPSQEAPSFQGTESPKPCK (UniProt Q6PJF5),-0.549,-1.52
PRKDC_P78527_1791_GSCVTQVGLLESVYEMFRK (UniProt P78527),-0.126,-0.358
RBBP5_Q15291_73_IISAHIHPVCSLCWSR (UniProt Q15291),0.147,0.294
RANBP1_P43487_132_AWVWNTHADFADECPKPELLAIR (UniProt P43487),0.00233,-0.0881
PTGS2_P35354_299_EHNRVCDVLK (UniProt P35354),-0.078,-0.759
